Experimental data published in patent publication US20170354148A1, “SAFENED HERBICIDAL COMPOSITIONS CONTAINING HALAUXIFEN AND METHODS OF USE THEREOF IN BRASSICA SPECIES” (Dow AgroSciences LLC, priority 2016, published 2017).
Several values for one entry are separate records, joined by “and”; a condition that tells them apart may be missing. Equal values may be shown once.

Experiments:
[1] = tested on: all varieties of canola and oil seed rape (Brassica napus, BRSNN); test: Example 5 greenhouse trials, postemergence visual injury; conditions: for % Visual Injury Obs / Visual Injury Obs: BRSNN
[2] = tested on: Juncea canola or brown mustard (Brassica juncea, BRSJU); test: as above; conditions: for % Visual Injury Obs / Visual Injury Obs: BRSJU
[3] = tested on: BRSOM=Brassica oleracea var. acephala subvar. Medullosa (stem kale); test: Example 2 trials (Table 6), postemergence crop safety, visual leafroll
[4] = tested on: stem kale (Brassica oleracea var. acephala subvar. medullosa, BRSOM); test: Example 1 pot trials, postemergence crop safety, visual phytotoxicity
[5] = halauxifen-methyl alone 2.5 g ai/ha
[6] = halauxifen-methyl alone 5 g ai/ha
[7] = halauxifen-methyl alone 10 g ai/ha

In the case of `CCOC(=O)C1=NN(c2ccc(Cl)cc2Cl)C(C)(C(=O)OCC)C1` (racemic) [Mefenpyr-diethyl, diethyl (RS)-1-(2,4-dichlorophenyl)-5-methyl-2-pyrazoline-3,5-dicarboxylate], the “Percent (%) Visual Injury BRSNN Obs” value ([1]; safener alone 5 g ai/ha) is reported as 0%, the “Percent (%) Visual Injury BRSNN Obs” value ([1]; safener alone 10 g ai/ha) is reported as 0% and the “Percent (%) Visual Injury BRSNN Obs” value ([1]; safener alone 20 g ai/ha) is reported as 0%. The “Percent (%) Visual Injury BRSNN Obs” value ([1]; safener alone 40 g ai/ha) was 0%, the “Percent (%) Visual Injury BRSJU Obs” value ([2]; safener alone 5 g ai/ha) was 0% and the “Percent (%) Visual Injury BRSJU Obs” value ([2]; safener alone 10 g ai/ha) was 0%. For the same compound, the “Percent (%) Visual Injury BRSJU Obs” value ([2]; safener alone 20 g ai/ha) was 0% and the “Percent (%) Visual Injury BRSJU Obs” value ([2]; safener alone 40 g ai/ha) was 0%.
For `O=C(O)c1nc(Cl)ccc1Cl` [Clopyralid-TIPA, (2RS,2′RS,2″RS)-tris(2-hydroxypropyl)ammonium 3,6-dichloropyridine-2-carboxylate], the “Mean % Visual Leafroll” value ([3]; 1DAA1, 22.5 g ae/ha) was 0%, the “Mean % Visual Leafroll” value ([3]; 1DAA1, 45 g ae/ha) was 0% and the “Mean % Visual Leafroll” value ([3]; 1DAA1, 90 g ae/ha) was 0%. The “Mean % Visual Leafroll” value ([3]; 1DAA1, 180 g ae/ha) was 0%, the “Mean % Visual Leafroll” value ([3]; 1DAA1, 360 g ae/ha) was 0% and the “Mean % Visual Leafroll” value ([3]; 4DAA1, 22.5 g ae/ha) was 0%. The “Mean % Visual Leafroll” value ([3]; 4DAA1, 45 g ae/ha) was 0%, the “Mean % Visual Leafroll” value ([3]; 4DAA1, 90 g ae/ha) was 0% and the “Mean % Visual Leafroll” value ([3]; 4DAA1, 180 g ae/ha) was 0%. For the same compound, the “Mean % Visual Leafroll” value ([3]; 4DAA1, 360 g ae/ha) was 0%, the “Mean % Visual Leafroll” value ([3]; 7DAA1, 45 g ae/ha) was 0% and the “Mean % Visual Leafroll” value ([3]; 7DAA1, 90 g ae/ha) was 0%. The “Mean % Visual Leafroll” value ([3]; 7DAA1, 180 g ae/ha) was 0%, the “Mean % Visual Leafroll” value ([3]; 7DAA1, 360 g ae/ha) was 0% and the “Mean % Visual Leafroll” value ([3]; 15DAA1, 90 g ae/ha) was 0%. The “Mean % Visual Leafroll” value ([3]; 15DAA1, 180 g ae/ha) was 0%, the “Mean % Visual Leafroll” value ([3]; 28DAA1, 90 g ae/ha) was 0% and the “Mean % Visual Leafroll” value ([3]; 28DAA1, 360 g ae/ha) was 0%. The “Mean % Visual Deformation” value ([4]; 7DAA1, 22.5 g ae/ha) was 0.0% and 0.7%, the “Mean % Visual Deformation” value ([4]; 7DAA1, 45 g ae/ha) was 0.0% and 0.7% and the “Mean % Visual Deformation” value ([4]; 7DAA1, 90 g ae/ha) was 0.0% and 0.7%. For the same compound, the “Mean % Visual Deformation” value ([4]; 7DAA1, 180 g ae/ha) was 0.0% and 0.7%, the “Mean % Visual Deformation” value ([4]; 7DAA1, 360 g ae/ha) was 0.0% and 0.7% and the “Mean % Visual Deformation” value ([4]; 15DAA1, 22.5 g ae/ha) was 0.0%. The “Mean % Visual Deformation” value ([4]; 15DAA1, 45 g ae/ha) was 0.0%, the “Mean % Visual Deformation” value ([4]; 15DAA1, 90 g ae/ha) was 0.0% and the “Mean % Visual Deformation” value ([4]; 15DAA1, 180 g ae/ha) was 0.0%. For the same compound, the “Mean % Visual Deformation” value ([4]; 15DAA1, 360 g ae/ha) was 0.0%, the “Mean % Visual Deformation” value ([4]; 28DAA1, 90 g ae/ha) was 0.0% and the “Mean % Visual Deformation” value ([4]; 28DAA1, 180 g ae/ha) was 0.0%. The “Mean % Visual Deformation” value ([4]; 28DAA1, 360 g ae/ha) was 0.0%, the “Mean % Visual Injury” value ([4]; trial 1, 15DAA1, 90 g ae/ha) was 0.0% and the “Mean % Visual Injury” value ([4]; trial 1, 28DAA1, 90 g ae/ha) was 0.0%. For the same compound, the “Mean % Visual Injury” value ([4]; trial 2, 7DAA1, 22.5 g ae/ha) was 0.7%, the “Mean % Visual Injury” value ([4]; trial 2, 7DAA1, 45 g ae/ha) was 0.7% and the “Mean % Visual Injury” value ([4]; trial 2, 7DAA1, 90 g ae/ha) was 0.0% and 0.7%. The “Mean % Visual Injury” value ([4]; trial 2, 7DAA1, 180 g ae/ha) was 0.0% and 0.7%, the “Mean % Visual Injury” value ([4]; trial 2, 7DAA1, 360 g ae/ha) was 0.0% and 0.7% and the “Mean % Visual Injury” value ([4]; trial 2, 15DAA1, 22.5 g ae/ha) was 0.0%. The “Mean % Visual Injury” value ([4]; trial 2, 15DAA1, 45 g ae/ha) was 0%, the “Mean % Visual Injury” value ([4]; trial 2, 15DAA1, 90 g ae/ha) was 0% and the “Mean % Visual Injury” value ([4]; trial 2, 15DAA1, 180 g ae/ha) was 0.0%. The “Mean % Visual Injury” value ([4]; trial 2, 15DAA1, 360 g ae/ha) was 0%, the “Mean % Visual Injury” value ([4]; trial 2, 28DAA1, 180 g ae/ha) was 0% and the “Mean % Visual Injury” value ([4]; trial 2, 28DAA1, 360 g ae/ha) was 0%.
`O=C(O)c1nc(Cl)ccc1Cl` [Clopyralid-olamine, 2-hydroxyethanaminium 3,6-dichloro-2-pyridinecarboxylate] was tested, and the “% Visual Injury Obs” value ([1]; 50 g ai/ha alone, 20-22 d) was 2%, the “% Visual Injury Obs” value ([1]; 100 g ai/ha alone, 20-22 d) was 0% and the “% Visual Injury Obs” value ([1]; 200 g ai/ha alone, 20-22 d) was 0%. For the same compound, the “% Visual Injury Obs” value ([2]; 50 g ai/ha alone, 20-22 d) was 0%, the “% Visual Injury Obs” value ([2]; 100 g ai/ha alone, 20-22 d) was 0% and the “% Visual Injury Obs” value ([2]; 200 g ai/ha alone, 20-22 d) was 0%.
With `COC(=O)c1nc(-c2ccc(Cl)c(OC)c2F)cc(N)c1Cl` [Halauxifen-methyl, methyl 4-amino-3-chloro-6-(4-chloro-2-fluoro-3-methoxyphenyl)-2-pyridineccarboxylate] the “% Visual Injury Obs” value ([1]; 2.5 g ai/ha alone, 20-22 d) was 12%, the “% Visual Injury Obs” value ([1]; 5 g ai/ha alone, 20-22 d) was 19% and the “% Visual Injury Obs” value ([1]; 10 g ai/ha alone, 20-22 d) was 21%. For the same compound, the “% Visual Injury Obs” value ([1]; halauxifen-methyl 2.5 g ai/ha) was 12%, the “Visual Injury Obs” value ([1]; halauxifen-methyl 2.5 g ai/ha) was 12% and the “% Visual Injury Obs” value ([1]; halauxifen-methyl 5 g ai/ha) was 19%. The “Visual Injury Obs” value ([1]; halauxifen-methyl 5 g ai/ha) was 19%, the “% Visual Injury Obs” value ([1]; halauxifen-methyl 10 g ai/ha) was 21% and the “Visual Injury Obs” value ([1]; halauxifen-methyl 10 g ai/ha) was 21%. For the same compound, the “Percent (%) Visual Injury BRSNN Obs” value [1, 5] was 12%, the “Percent (%) Visual Injury BRSNN Obs” value [1, 6] was 19% and the “Percent (%) Visual Injury BRSNN Obs” value [1, 7] was 21%. For the same compound, the “Mean % Visual Deformation” value ([4]; 15DAA1, 15 g ae/ha) was 42.5% and 40.0%, the “Mean % Visual Deformation” value ([4]; 28DAA1, 15 g ae/ha) was 70.0% and the “Mean % Visual Injury” value ([4]; trial 1, 15DAA1, 15 g ae/ha) was 18.0%. For the same compound, the “Mean % Visual Injury” value ([4]; trial 1, 28DAA1, 15 g ae/ha) was 26.0%, the “Mean % Visual Injury” value ([4]; trial 2, 15DAA1, 15 g ae/ha) was 52.5% and 46.4% and the “Mean % Visual Injury” value ([4]; trial 2, 28DAA1, 15 g ae/ha) was 70.8%. For the same compound, the “% Visual Injury Obs” value ([2]; 2.5 g ai/ha alone, 20-22 d) was 4%, the “% Visual Injury Obs” value ([2]; 5 g ai/ha alone, 20-22 d) was 8% and the “% Visual Injury Obs” value ([2]; 10 g ai/ha alone, 20-22 d) was 5%. The “% Visual Injury Obs” value ([2]; halauxifen-methyl 2.5 g ai/ha) was 4%, the “Visual Injury Obs” value ([2]; halauxifen-methyl 2.5 g ai/ha) was 4% and the “% Visual Injury Obs” value ([2]; halauxifen-methyl 5 g ai/ha) was 8%. For the same compound, the “Visual Injury Obs” value ([2]; halauxifen-methyl 5 g ai/ha) was 8%, the “% Visual Injury Obs” value ([2]; halauxifen-methyl 10 g ai/ha) was 5% and the “Visual Injury Obs” value ([2]; halauxifen-methyl 10 g ai/ha) was 5%. The “Percent (%) Visual Injury BRSJU Obs” value [2, 5] was 4%, the “Percent (%) Visual Injury BRSJU Obs” value [2, 6] was 8% and the “Percent (%) Visual Injury BRSJU Obs” value [2, 7] was 5%.
`O=C(O)c1c(Cl)ccc2cc(Cl)cnc12` [Quinclorac, 3,7-dichloro-8-quinolinecarboxylic acid] was tested, and the “% Visual Injury Obs” value ([1]; 50 g ai/ha alone, 20-22 d) was 0%, the “% Visual Injury Obs” value ([1]; 100 g ai/ha alone, 20-22 d) was 0% and the “% Visual Injury Obs” value ([1]; 200 g ai/ha alone, 20-22 d) was 0%. The “% Visual Injury Obs” value ([1]; quinclorac 50 g ai/ha) was 0%, the “Visual Injury Obs” value ([1]; quinclorac 50 g ai/ha) was 0% and the “% Visual Injury Obs” value ([1]; quinclorac 100 g ai/ha) was 0%. The “Visual Injury Obs” value ([1]; quinclorac 100 g ai/ha) was 0%, the “% Visual Injury Obs” value ([1]; quinclorac 200 g ai/ha) was 0% and the “Visual Injury Obs” value ([1]; quinclorac 200 g ai/ha) was 0%. The “% Visual Injury Obs” value ([2]; 50 g ai/ha alone, 20-22 d) was 0%, the “% Visual Injury Obs” value ([2]; 100 g ai/ha alone, 20-22 d) was 0% and the “% Visual Injury Obs” value ([2]; 200 g ai/ha alone, 20-22 d) was 0%. The “% Visual Injury Obs” value ([2]; quinclorac 50 g ai/ha) was 0%, the “Visual Injury Obs” value ([2]; quinclorac 50 g ai/ha) was 0% and the “% Visual Injury Obs” value ([2]; quinclorac 100 g ai/ha) was 0%. The “Visual Injury Obs” value ([2]; quinclorac 100 g ai/ha) was 0%, the “% Visual Injury Obs” value ([2]; quinclorac 200 g ai/ha) was 0% and the “Visual Injury Obs” value ([2]; quinclorac 200 g ai/ha) was 0%.
